# Results from US20050176758A1, “NOVEL COMPOUNDS AND METHODS FOR SYNTHESIS AND THERAPY” (priority 1995, published 2005).
# Assays:
# [1] = test system: Influenza A/NWS/33 (H1N1); assay: Influenza A (H1N1) virus-infected mice, i.p. treatment (Table I); conditions: for Mean Lung Parameters Weight / Mean Lung Parameters Score: day 6; for Mean Lung Parameters Score: 0=normal, 4=100% of lung affected; for Mean SaO2 %: mean of days 3-10; for Surv/Total: bid x 5 beginning 4 hr pre-virus exposure, held 21 days
# [2] = test system: Influenza A/NWS/33 (H1N1); assay: Influenza A (H1N1) virus-infected mice, oral gavage treatment (Table II); conditions: for Mean Surv. Time / Mean Surv. Time (days): animals dying on or before day 21; for Mean SaO2 %: mean of days 3-10; for Surv/Total: bid x 5 beginning 4 hr pre-virus exposure, held 21 days
# [3] = 10 mg/kg/day p.o., bid x 5, day 6
# [4] = 50 mg/kg/day p.o., bid x 5, day 6
# [5] = 250 mg/kg/day p.o., bid x 5, day 6
# [6] = 32 mg/kg/day p.o., bid x 5, day 6
# [7] = 100 mg/kg/day p.o., bid x 5, day 6
smiles,measurement,setting,value
"CC(=O)N[C@H]1[C@H]([C@H](O)[C@H](O)CO)OC(C(=O)O)=C[C@@H]1N=C(N)N [GG167, 4-guanidino-2,4-dideoxy-2,3-dehydro-N-acetylneuraminic acid]",Mean Surv. Time,"[1]; 0.5 mg/kg/day i.p., bid x 5, animals dying on or before day 21",12.3 days
same,Mean Lung Parameters Weight,"[1]; 0.5 mg/kg/day i.p., bid x 5",227 mg
same,Mean Lung Parameters Score,"[1]; 0.5 mg/kg/day i.p., bid x 5",2.3
same,Mean SaO2 %,"[1]; 0.5 mg/kg/day i.p., bid x 5",84.5%
same,Surv/Total,[1]; 0.5 mg/kg/day i.p.,0/8
same,Mean Surv. Time,"[1]; 2 mg/kg/day i.p., bid x 5, animals dying on or before day 21",12.6 days
same,Mean Lung Parameters Weight,"[1]; 2 mg/kg/day i.p., bid x 5",213 mg
same,Mean Lung Parameters Score,"[1]; 2 mg/kg/day i.p., bid x 5",1.3
same,Mean SaO2 %,"[1]; 2 mg/kg/day i.p., bid x 5",86.0** %
same,Surv/Total,[1]; 2 mg/kg/day i.p.,1/8
same,Mean Surv. Time,"[1]; 10 mg/kg/day i.p., bid x 5, animals dying on or before day 21",15.0 days
same,Mean Lung Parameters Weight,"[1]; 10 mg/kg/day i.p., bid x 5",170* mg
same,Mean Lung Parameters Score,"[1]; 10 mg/kg/day i.p., bid x 5",1.7
same,Mean SaO2 %,"[1]; 10 mg/kg/day i.p., bid x 5",87.5** %
same,Surv/Total,[1]; 10 mg/kg/day i.p.,7/8**
same,Mean Surv. Time (days),"[1]; 50 mg/kg/day i.p., bid x 5, animals dying on or before day 21",>21.0** days
same,Mean Lung Parameters Weight,"[1]; 50 mg/kg/day i.p., bid x 5",230 mg
same,Mean Lung Parameters Score,"[1]; 50 mg/kg/day i.p., bid x 5",0.7*
same,Mean SaO2 %,"[1]; 50 mg/kg/day i.p., bid x 5",87.6** %
same,Surv/Total,[1]; 50 mg/kg/day i.p.,8/8**
same,Mean Surv. Time,"[2]; 10 mg/kg/day p.o., bid x 5",10.5 days
same,Mean Lung Parameters Weight,[2]; [3],250 mg
same,Mean Lung Parameters Score,[2]; [3],1.5*
same,Mean SaO2 %,"[2]; 10 mg/kg/day p.o., bid x 5",85.2%
same,Surv/Total,[2]; 10 mg/kg/day p.o.,5/7*
same,Mean Surv. Time (days),"[2]; 50 mg/kg/day p.o., bid x 5",>21.0** days
same,Mean Lung Parameters Weight (mg),[2]; [4],187* mg
same,Mean Lung Parameters Score,[2]; [4],1.5*
same,Mean SaO2 %,"[2]; 50 mg/kg/day p.o., bid x 5",88.0* %
same,Surv/Total,[2]; 50 mg/kg/day p.o.,8/8**
same,Mean Surv. Time (days),"[2]; 250 mg/kg/day p.o., bid x 5",>21.0** days
same,Mean Lung Parameters Weight (mg),[2]; [5],163** mg
same,Mean Lung Parameters Score,[2]; [5],0.3**
same,Mean SaO2 %,"[2]; 250 mg/kg/day p.o., bid x 5",88.6* %
same,Surv/Total,[2]; 250 mg/kg/day p.o.,8/8**
"NC(=O)c1ncn([C@@H]2O[C@H](CO)[C@@H](O)[C@H]2O)n1 [Ribavirin, ribavirin]",Mean Surv. Time,"[2]; 10 mg/kg/day p.o., bid x 5",11.0 days
same,Mean Lung Parameters Score,[2]; [3],2.2
same,Mean SaO2 %,"[2]; 10 mg/kg/day p.o., bid x 5",86.4%
same,Surv/Total,[2]; 10 mg/kg/day p.o.,3/8
same,Mean Surv. Time,"[2]; 32 mg/kg/day p.o., bid x 5",13.0 days
same,Mean Lung Parameters Weight (mg),[2]; [6],163** mg
same,Mean Lung Parameters Score,[2]; [6],0.8**
same,Mean SaO2 %,"[2]; 32 mg/kg/day p.o., bid x 5",88.0* %
same,Surv/Total,[2]; 32 mg/kg/day p.o.,6/8*
same,Mean Surv. Time (days),"[2]; 100 mg/kg/day p.o., bid x 5",>21.0** days
same,Mean Lung Parameters Weight (mg),[2]; [7],140** mg
same,Mean Lung Parameters Score,[2]; [7],0.3**
same,Mean SaO2 %,"[2]; 100 mg/kg/day p.o., bid x 5",88.2* %
same,Surv/Total,[2]; 100 mg/kg/day p.o.,8/8**

# Marks after values point to notes of the source that are not given here.
